Results published in PMC4336329 (PLoS ONE, 2015).
Screen size: about 310,000 compounds; about 2,200 (0.71%) showed an effect of 50% or more. The effect is printed as a negative number. The list shows a part of the results.

These compounds were tested against human ether-à-go-go-related gene (hERG) potassium channel (human, UniProt Q12809) (assay: primary screen, population patch clamp on CHO cells stably expressing hERG).
Sequence of human ether-à-go-go-related gene (hERG) potassium channel (Q12809 whole entry, looked up): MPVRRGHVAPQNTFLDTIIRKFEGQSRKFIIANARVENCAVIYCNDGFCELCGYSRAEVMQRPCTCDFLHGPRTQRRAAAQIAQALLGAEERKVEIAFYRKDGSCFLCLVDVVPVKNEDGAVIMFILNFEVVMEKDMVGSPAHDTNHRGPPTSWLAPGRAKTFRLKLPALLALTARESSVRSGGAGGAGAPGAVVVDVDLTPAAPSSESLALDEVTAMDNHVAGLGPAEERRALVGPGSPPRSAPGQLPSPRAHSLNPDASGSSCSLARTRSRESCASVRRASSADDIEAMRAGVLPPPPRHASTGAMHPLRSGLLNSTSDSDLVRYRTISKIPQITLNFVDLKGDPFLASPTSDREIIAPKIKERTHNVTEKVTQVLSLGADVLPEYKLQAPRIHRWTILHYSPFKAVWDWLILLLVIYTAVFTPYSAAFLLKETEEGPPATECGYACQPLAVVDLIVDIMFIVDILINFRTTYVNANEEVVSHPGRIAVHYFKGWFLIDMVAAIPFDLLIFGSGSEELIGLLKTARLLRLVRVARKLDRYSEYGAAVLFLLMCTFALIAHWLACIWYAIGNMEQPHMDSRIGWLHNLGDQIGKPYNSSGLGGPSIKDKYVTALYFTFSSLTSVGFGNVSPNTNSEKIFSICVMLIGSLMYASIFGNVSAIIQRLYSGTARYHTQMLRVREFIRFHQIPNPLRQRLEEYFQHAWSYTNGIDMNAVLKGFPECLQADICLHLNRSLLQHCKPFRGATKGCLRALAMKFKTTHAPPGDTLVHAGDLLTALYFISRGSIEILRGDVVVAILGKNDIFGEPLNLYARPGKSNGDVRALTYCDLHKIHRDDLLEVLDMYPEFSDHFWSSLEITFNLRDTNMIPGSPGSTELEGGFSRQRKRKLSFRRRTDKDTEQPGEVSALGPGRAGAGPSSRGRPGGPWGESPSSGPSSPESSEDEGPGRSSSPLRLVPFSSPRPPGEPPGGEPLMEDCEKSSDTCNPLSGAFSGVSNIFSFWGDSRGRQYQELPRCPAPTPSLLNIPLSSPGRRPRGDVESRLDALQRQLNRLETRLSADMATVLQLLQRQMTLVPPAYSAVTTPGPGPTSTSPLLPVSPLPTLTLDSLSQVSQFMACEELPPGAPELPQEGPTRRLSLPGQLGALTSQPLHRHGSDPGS

In order of falling “hERG current change (%, negative = inhibition) at 1uM” value:
1. COc1ccc(CC(=O)NC2CCN(Cc3nnnn3C(C)(C)C)CC2)cc1OC  20%
2. OCCN1CCOCCOc2ccccc2OCCOCC1  16.3%
3. CC1CC1c1ccc(/C=C(\C#N)C(=O)Nc2ccc(Cl)cc2)o1 (stereo not drawn)  16%
4. COc1cc2c(cc1OC)CN(Cc1cc(=O)n3c(-c4ccccc4)csc3n1)CC2  14.9%
5. Cc1cccc(NC2=C/C(=N/S(=O)(=O)c3cccs3)c3ccccc3C2=O)c1  14%
6. CC(C)CN(C(=O)CCNC(=O)c1ccccc1Cl)C1CCS(=O)(=O)C1 (stereo not drawn)  11.6%
7. Cc1ccc(C(=O)N2CCN(c3ncccn3)CC2)cc1  10.9%
8. CC(=O)Nc1c(C)nn(-c2ccc(C)c(C)c2)c1C  10.3%
9. COC(=O)C1CCN(C(=O)c2ccc3oc(Cc4ccc(Cl)cc4)nc3c2)CC1  9.78%
10. COc1ccc(NC(=O)c2cccnc2SC)cc1S(=O)(=O)N1CCCCC1  9.44%
11. CC1=CC(C)(C)N(C)C(=O)N1c1ccc(Cl)cc1  9.35%
12. N#Cc1cccc(S(=O)(=O)NCC(=O)NCCCc2ccccc2)c1  9.15%
13. COCCN(C(=O)CN1CCc2ccccc21)c1c(N)n(Cc2ccccc2)c(=O)[nH]c1=O  6.55%
14. C/C(=N\Nc1cccc2cccnc12)c1ccc(C)cc1  5.99%
15. N#Cc1c(/N=C/c2ccc(-c3ccc(C(=O)O)c(Cl)c3)o2)sc2c1CCCC2  5.55%
16. CN1CCN(C(=O)/C(=C/c2cn(S(=O)(=O)N(C)C)c3ccccc23)NC(=O)c2ccccc2)CC1  4.83%
17. COCCOc1cc(-n2cccc2)c(Cl)cc1Cl  4.8%
18. c1csc(CN2CCN(Cc3cccs3)C2c2cccs2)c1  4.62%
19. C=CCNC(=S)N1CCN(S(=O)(=O)c2ccc(C)cc2)CC1  -1.66%
20. CCOc1ccc2c(c1)C(N(CCN1CCOCC1)C(=S)Nc1ccccc1OC)CC(C)(C)O2 (stereo not drawn)  -2.61%
21. NC(=O)c1cc([N+](=O)[O-])ccc1NCc1cccc([N+](=O)[O-])c1  -3.78%
22. COc1ccccc1CNC(=O)CSc1nc2ccccc2c(=O)n1CCCN1CCOCC1  -6.17%
23. Cc1ccc(C(=O)CN2CCC(NC(=O)C3CCCCC3)CC2)cc1  -7.65%
24. CC1=C(C(=O)OCc2ccccc2)C(c2ccccc2)NC(=O)N1CCCC(=O)O (stereo not drawn)  -11.4%
